Screen size: about 110,000 compounds; about 230 (0.21%) showed an effect of 50% or more. Some of the results follow.

From paper PMC6919601, “Identification of Plasmodium dipeptidyl aminopeptidase allosteric inhibitors by high throughput screening” (PLoS ONE, 2019) come the findings set out here.
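Note: 30 min substrate incubation versus DMSO and 10 µM JCP410 controls.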

The target of this test is DPAP1 (Plasmodium falciparum, UniProt Q8IIJ9). Description: primary screen, percent inhibition; read by cleavage of a fluorogenic dipeptide substrate; higher = more effect of the substance. Details: species or system P. falciparum D10 trophozoite lysates; single well.
Sequence of DPAP1 (Q8IIJ9 whole entry, looked up): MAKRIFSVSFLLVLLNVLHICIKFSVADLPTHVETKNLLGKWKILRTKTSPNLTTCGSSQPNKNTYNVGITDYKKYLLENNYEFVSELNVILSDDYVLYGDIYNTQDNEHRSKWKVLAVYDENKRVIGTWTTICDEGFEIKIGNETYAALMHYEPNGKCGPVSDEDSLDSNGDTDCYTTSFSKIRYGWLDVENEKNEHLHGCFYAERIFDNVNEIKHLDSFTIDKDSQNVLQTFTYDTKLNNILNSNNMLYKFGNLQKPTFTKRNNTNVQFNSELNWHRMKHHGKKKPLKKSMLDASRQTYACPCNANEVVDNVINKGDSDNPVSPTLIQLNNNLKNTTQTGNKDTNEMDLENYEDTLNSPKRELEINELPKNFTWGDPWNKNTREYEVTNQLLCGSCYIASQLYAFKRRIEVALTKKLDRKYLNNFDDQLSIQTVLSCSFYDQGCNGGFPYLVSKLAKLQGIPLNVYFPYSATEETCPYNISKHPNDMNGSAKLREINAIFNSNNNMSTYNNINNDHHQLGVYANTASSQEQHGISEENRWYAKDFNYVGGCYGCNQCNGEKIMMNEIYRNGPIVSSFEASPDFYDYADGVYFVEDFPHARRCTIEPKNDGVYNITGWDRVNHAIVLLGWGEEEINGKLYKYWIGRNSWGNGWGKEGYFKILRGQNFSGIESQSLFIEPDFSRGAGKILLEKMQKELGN
For the compound `COc1ccc2nc(NC(=O)C3=C(C)C(=O)OC34CCCCCC4)sc2c1`, the “% Inhibition @ 10 uM” value came to 7.67%. In the case of `Cc1cc(OCc2ccc(C(=O)Nc3cccnc3Cl)o2)ccc1Cl` it was 0.413%. Under `CC1CCCCN1CCn1cnc2c3cc(F)ccc3nc-2c1O` (stereo not drawn) stands 4.8%. `COc1ccc2oc(/C=C/N(C)C)c(C(=O)c3ccc(C)cc3)c2c1`: the “% Inhibition @ 10 uM” value came out at 8.67%. On to `COc1ccc(CCNC(=O)CO/N=C/c2cc3c(cc2Br)OCO3)cc1OC`, for which the “% Inhibition @ 10 uM” value is -4.35%. In the case of `c1ccc(CCN2CCC(NC3CCCCCC3)CC2)cc1` it was -1.41%; in that of `CCCCN(c1ncnc2onc(-c3ccc(F)cc3)c12)C1CCN(C(C)=O)CC1`, -0.705%. In the case of `O=C(COc1ccc(Br)cc1)Nc1ccc(S(=O)(=O)N2CCOCC2)cc1` it was 1.86%; in that of `COC(=O)c1cc(S(=O)(=O)NCc2ccc3c(c2)OCO3)cn1C`, 2.32%; in that of `CCOc1ccc(S(=O)(=O)n2nc(C)c(Cl)c2C)c2ccccc12`, 5.45%. In the case of `Cc1nnc2c(NCc3ccc4c(c3)OCO4)nc3ccc(C(=O)c4ccccc4)cc3n12` it was 79.7%.

Regarding `Cc1cc(C(=O)Nc2cccc3ccccc23)c(C)o1`, the “% Inhibition @ 10 uM” value is 4.28%. On to `CC(NC(=O)/C=C/c1ccc(Cl)cc1)c1ccccc1` (stereo not drawn), for which the “% Inhibition @ 10 uM” value is on record as -5.84%.

On to `COc1cc(C(=O)NCC(C)NC(=O)c2cc(OC)c(OC)c(OC)c2)cc(OC)c1OC` (stereo not drawn), for which the “% Inhibition @ 10 uM” value is listed as -7.02%. `CC1CCN(S(=O)(=O)c2ccc3c(ccn3CC(=O)NCc3ccc4c(c3)OCO4)c2)CC1`: the “% Inhibition @ 10 uM” value worked out at 29.8%. Under `Cc1ccc(N2CCN(CN3C(=O)S/C(=C/c4ccc(OCCO)cc4)C3=O)CC2)cc1` stands -15.2%; under `COc1ccccc1/N=C/C1=C(O)CC(c2ccccc2)CC1=O` (stereo not drawn), 0.343%; under `Cc1cc(NS(=O)(=O)c2ccc(NC(=O)C3C4C=CC(C4)C3C(=O)O)cc2)nc(C)n1` (stereo not drawn), 1.17%. In the case of `COc1ccc2c(CNCc3ccco3)c(C(=O)O)n(Cc3ccccc3C)c2c1` it was -1.09%; in that of `CC(=O)Nc1ccc(C2C(C#N)=C(N)Oc3[nH]nc(-c4ccc5ccccc5c4)c32)cc1` (stereo not drawn), 12.3%. Under `N#CCNC(=O)[C@H](CS(=O)(=O)Cc1ccccc1)NC(=O)c1cnc2ccccc2c1` stands -0.413%.

As for `CN(C)CCN(C)Cc1c(F)cccc1F`, the “% Inhibition @ 10 uM” value is 6.17%. In the case of `COc1ccc(/C=C/C(=O)NCCc2ccccc2)cc1` it was -2.03%; in that of `CCCNC(=O)C1CCCN(c2nnc(N3CCCC3=O)s2)C1` (stereo not drawn), 3.87%. In the case of `COc1ccc2c(c1)CCC1C2=NN(C(C)=O)C1c1ccc(F)cc1` (stereo not drawn) it was 1.42%; in that of `CC(=O)N(CCCN(C)C)c1nc2c(F)cc(F)cc2s1`, -6.33%; in that of `O=C(O)C1CSC(c2ccc(OCc3ccccc3F)cc2)N1` (stereo not drawn), 1.83%. Under `O=C(C1=CCN(S(=O)(=O)c2ccccc2)CC1)N1CCN(c2ccccn2)CC1` stands -5.19%; under `COc1ccc(C(=O)NC2CC(C)(C)Cc3occc32)cc1` (stereo not drawn), -2.09%; under `COc1ccccc1CNC(=O)c1ccccc1C`, 0.467%. Consider `CO/C(O)=C1\C(C)=NC2=C(C(=O)CC(C)(C)C2)C1c1cccc(Cl)c1` (stereo not drawn), for which the “% Inhibition @ 10 uM” value is given as -0.0953%. Under `CCCN1CCC(NCCc2ccc(Cl)cc2)CC1` stands -1.56%. In the case of `O=C(c1ccco1)N1CCN(C(=O)c2cccc3c2C(=O)N(Cc2cccnc2)C3)CC1` it was 6.08%. In the case of `Cc1cccc(C(=O)N2CCC(Cc3ccccc3)CC2)c1` it was 3.53%; in that of `Cc1oc(-c2ccc(C(=O)NCCN(C)C)cc2)nc1CS(=O)c1ccccc1` (stereo not drawn), 2.15%; in that of `N#CCNC(=O)C(Cc1cccc(-c2ccccc2)c1)CS(=O)(=O)Cc1ccccc1OC(F)F` (stereo not drawn), -1.83%. Take `CC(=O)N(C)c1ccc(NC(=O)COc2cc(C)c(Cl)c(C)c2)cc1`: the “% Inhibition @ 10 uM” value is on record as 3.57%. Under `Cc1cccc(/C=C2/SC(=O)N(Cc3ccccc3)C2=O)n1` stands -7.83%; under `Clc1ccc(CCNc2nn3nnnc3c3ccccc23)cc1`, -0.984%. In the case of `O=C(c1noc2c1COc1ccccc1-2)N1CCC2(CC1)OCCO2` it was 0.00665%; in that of `Cc1n(CC(O)COC2CCCCC2)c2ccccc2[n+]1C` (stereo not drawn), 2.38%; in that of `O=C(NCCN1CCCCCC1)c1ccc2c(c1)ncn2C1CCCCC1`, 3.24%. In the case of `Cc1cccc(OCC(=O)Nc2ccc(F)cc2)c1C` it was 0.795%; in that of `c1nnc2c3c4c(sc3ncn12)CCCC4`, 7.66%; in that of `O=C(Nc1ccccc1)C(CCO)Nc1ccccc1` (stereo not drawn), 3.98%. `O=C(c1cc2c(s1)-c1ccccc1OC2)N1CCC(N2CCCCC2)CC1`: the “% Inhibition @ 10 uM” value is reported as 0.291%. In the case of `CCN1CCN(Cc2ccccc2F)CC1` it was 2.33%; in that of `O=C(NCc1ccccn1)c1ccc(CNS(=O)(=O)c2cccc(C(F)(F)F)c2)cc1`, -4.15%.

As for `O=C(c1ccccc1Cl)n1nc(-c2ccccc2)nc1NCc1ccco1`, the “% Inhibition @ 10 uM” value is -10.8%. In the case of `COc1ccc(N2C(=O)C3C(c4ccccc4C)OC4(C(=O)c5ccccc5C4=O)C3C2=O)cc1OC` (stereo not drawn) it was 5.73%; in that of `COc1ccc(-c2nc3cc(C)ccc3o2)cc1N`, -0.294%; in that of `CCCC(C)NC(=O)c1sc2ccccc2c1Cl` (stereo not drawn), 2.38%.

For `COc1ccc(NC(=O)OCC(F)(F)C(F)F)cc1Cl`, the “% Inhibition @ 10 uM” value is -4.87%. Under `COc1ccc(Br)cc1CNCc1c(C(=O)O)c(C)n(Cc2ccccc2)c1C` stands 1.63%; under `O=C(Nc1nc(-c2ccccc2)cs1)Nc1ccc(Cl)cc1Cl`, -4.35%; under `COC(CNC1CCCc2c1[nH]c1ccc(C)cc21)OC` (stereo not drawn), 0.708%. In the case of `O=C(O)CCC(=O)N1N=C(c2ccc(Br)cc2)CC1c1ccc(Br)cc1` (stereo not drawn) it was 15.8%; in that of `O=C(C1CCC(c2ccc(-c3ccccc3)cc2)CC1)N1CCOCC1` (stereo not drawn), 0.177%; in that of `Cc1ccc(C)c(S(=O)(=O)c2nnn3c2nc(NCc2ccco2)c2sccc23)c1`, 0.304%. Under `O=C(/C=C/c1ccccc1)Nc1ccccc1C#Cc1ccccc1` stands 5.68%; under `O=C(CCn1cccc1)NC1CCCc2ccccc21` (stereo not drawn), 0.747%; under `COc1ccc(/C=C/C(=O)Nc2nc(-c3ccc(C)cc3)cs2)cc1OC`, -1.52%.

Consider `Cc1ccc(-n2nc3c(=O)n(CC(=O)NC4CCCc5ccccc54)nc(C)c3c2C)cc1` (stereo not drawn), for which the “% Inhibition @ 10 uM” value is -6.16%. In the case of `N#CCNC(=O)[C@H](CS(=O)(=O)Cc1ccccc1)NC(=O)c1ccc(-c2ccccc2)cc1` it was -0.214%; in that of `COc1ccc(CNC(=O)NC2(C(F)(F)F)Oc3ccc(Cl)cc3O2)cc1` (stereo not drawn), -0.363%; in that of `CCCCC(=O)NC(=O)c1ccccc1O`, 0.526%. Under `Cc1cc2oc3c(c(=O)c2cc1C)C(c1ccc(C(C)C)cc1)N(CCCN(C)C)C3=O` (stereo not drawn) stands -4.78%. In the case of `Cn1c2ccccc2c2nnc(SCCCC(=O)c3ccc4c(c3)OCCO4)nc21` it was 2.62%. For `COc1ccc(CN(C(=O)c2ccc(Cl)cc2)C2CCS(=O)(=O)C2)cc1` (stereo not drawn), the “% Inhibition @ 10 uM” value is reported as 0.561%. Under `CC(=O)Nc1cccc(N2C(=O)c3cc(Cl)c(Cl)cc3C2=O)c1` stands -3.78%; under `Cc1cc(O)nc(SCC(=O)NCc2ccc3c(c2)OCO3)n1`, 2.99%; under `CC1(C)Cc2ccccc2C(CC(=O)N2CCCCCC2)=N1`, -5.11%. In the case of `O=c1c2c3c(sc2nc2n1CCCCC2)CCC3`, the “% Inhibition @ 10 uM” value is given as -3.44%.

Regarding `NC(=O)CS(=O)(=O)c1nc2ccccc2n1Cc1cccc(F)c1`, the “% Inhibition @ 10 uM” value is recorded as -1.11%. In the case of `CCC(CCCC1CCNC(=O)N1)CC(=O)O` (stereo not drawn) it was -2.7%.

On to `CCOCCCNC(=O)CSc1nnc(C)c2c(C)n(-c3ccccc3)nc12`, for which the “% Inhibition @ 10 uM” value was 3.25%. In the case of `CN(C)CCO/N=C(\c1ccccc1)c1ccncc1` it was 3.25%; in that of `Cc1nc2c3ccccc3n(Cc3ccccc3)c2s1`, 43.9%. Under `COc1ccc(C2=NN(/C(C)=C/C(C)=O)C(c3cccc([N+](=O)[O-])c3)C2)cc1` (stereo not drawn) stands -0.128%; under `CCc1cc2c(cc3c(=O)n(CC(=O)NC(C)c4ccc5c(c4)OCCO5)nc(CC)n32)s1` (stereo not drawn), -1.7%; under `CCCCNc1c(Cl)cnn(-c2ccccc2)c1=O`, -3.44%. On to `Cc1nnc(N2CCN(C(=O)NC(C)C)CC2)c2nn(-c3ccc(Cl)cc3)c(C)c12`, for which the “% Inhibition @ 10 uM” value is on record as -2.29%. Under `COCCn1c(C)cc(C(=O)CSc2nnc3scc(-c4ccc(Cl)cc4)n23)c1C` stands 2.46%. Under `O=[N+]([O-])c1cccc(-c2ncnn2-c2ccccc2)c1` stands -3.6%; under `CCOc1ccc2nc(C34CC5CC(CC(C5)C3)C4)ccc2c1`, -1.32%. Turning to `Cc1c(CNC(C)C23CC4CC(CC(C4)C2)C3)c(C(=O)O)c(C)n1Cc1ccccc1` (stereo not drawn), the “% Inhibition @ 10 uM” value is -3.67%.

`COc1cccc(OCC(O)CN2CCN(c3ccccc3F)CC2)c1` (stereo not drawn): the “% Inhibition @ 10 uM” value is given as -11.6%.

In the case of `COc1ccc(-c2noc(N3CCCC(C(=O)Nc4cccnc4Cl)C3)n2)cc1` (stereo not drawn), the “% Inhibition @ 10 uM” value is on record as 0.6%. Regarding `O=C(COc1ccc(-c2ccccc2)cc1)Nc1nccs1`, the “% Inhibition @ 10 uM” value was determined as 16.1%. In the case of `CCCC1(CCC)C(=O)N=C(NCc2ccccc2)NC1=O` it was 1.02%; in that of `CC(=O)c1cccc(-n2c(S)nnc2-c2ccc3ccccc3n2)c1`, 5.31%.

With `COc1ccc(CCNC(=O)CSc2nc(O)c3cnn(-c4ccc(F)cc4)c3n2)cc1OC`, the “% Inhibition @ 10 uM” value is listed as -6.49%. Under `O=C(C1CCCO1)N1CCC(c2c[nH]c3ccccc23)(c2c[nH]c3ccccc23)CC1` (stereo not drawn) stands -2.37%; under `COCCCNC(=O)c1[nH]c2cc(C)ccc2c1Sc1ccc(Cl)cc1`, -8.23%. In the case of `CC(NC(=O)c1ccc(CS(=O)(=O)c2cccc(C(F)(F)F)c2)o1)c1ccc2c(c1)OCCO2` (stereo not drawn) it was -6.89%. Under `COc1cccc(CNC(C)CCc2ccc(O)cc2)c1OC` (stereo not drawn) stands 0.217%; under `Cc1ccc2c(c1)/C(=C\CC(=O)O)c1ccccc1CS2`, -8.26%; under `CCc1ccccc1NC(=O)C(C)Sc1ccccc1` (stereo not drawn), -0.941%.

`NC(=O)c1c(NC(=O)C2CCCC2)sc2c1CCC2`: the “% Inhibition @ 10 uM” value is given as -3.05%.
